Measurements reported in the supplement of paper PMC11417369.
The other results are listed elsewhere or left out.

What follows are sequences tested on PfAP2-HC AP2 domain (GST-tagged) (assay: gcPBM binding intensity (ln(normalized median fluorescence intensity)); higher = stronger DNA binding).
Method in brief: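 Each value is the highest Masliner-normalised natural-log median intensity across replicate spots of either orientation of a probe. The probes were primer-extended double-stranded 36-bp intergenic genomic sequences on an Agilent 4 × 180k array, alongside negative controls, exposed for 1 h to GST-tagged P. falciparum DNA-binding domains expressed in E. coli. Bound protein was picked up with Alexa488 anti-GST antibody and scanned at 488 nm.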

Sequence	gcPBM binding intensity (ln)
ATTAGATATGTAAACTAAAATTATATTCATGATAAT [TGCATGCA_negctrl_site182]	9.68
CAAGGAACCGGACACACACACATAAATGTATTTATA [CACACA_site4574]	10.2
CATTATCATGTTTTTTGTACTCATAATAAAAAGCAG [XGTACX_site2056]	9.27
ATTTACAAAAGGAAAGTGCAAACATGTGATTAAACA [CACACA_negctrl_site714]	9.7
TATATATAGAAACACACACACACCAAAGCGTAGCGC [CACACA_site62]	10.5
AATAATTGTTAAAGTTGTACTATACGTATATAAGAA [XGTACX_site1432]	9.85
AAAAATGAATTATTTTGTACATATATATATATATAT [XGTACX_site3410]	9.74
GCCAAAAGGATATGCACACACACACCCATATATATA [CACACA_site2198]	10.6
ATTTTAATTACATATACACACAAAGGTTCATAACAA [CACACA_site9008]	9.67
TAATTTAAACAAAAAAGTACAAATTTCTTTTTATTA [XGTACX_site5244]	9.3
TACTCATAATATTGATAATTAAAAAGATAAACTATT [XGTACX_negctrl_site299]	9.43
ATTATTTTATTATAGTGTACTTTTTTAATCAAAGGA [XGTACX_site8921]	9.44
AATTTTATTACTTTTACACACCTATATATTATTCAT [CACACA_site3273]	10.1
TTTTAAAAAAAATATAAAAAAAGAGGAGGGATGGTA [GTGCAC_negctrl_site35]	9.75
TATGTTTTTACGTGTGTGCACTTTGTAGAGATAAGT	9.85
AACTTATTTAAATTCACACATATATAAAATACTTAT [CACACA_site4394]	9.62
GATAACATAATATGTTGTACATAAAAATTTTTATCA [XGTACX_site1969]	9.62
ATCAATTTAATTTATTGTACTTGTTTGTTTTTTTAT [XGTACX_site7544]	9.81
ATAAAGATATGACACACACACATATTATAGATATAT [CACACA_site7434]	10.4
ACATATGACTATAATACACACTTGTATTATTAATAT [CACACA_site6951]	9.81
TTATAGAGCTTATTCACACATACATATGTATTTATA [CACACA_site5775]	9.87
ATAATAAAAATATACTGTACATTTGTAAATTCTTTT [XGTACX_site4655]	9.6

Sequence	gcPBM binding intensity (ln)
TAAAACATATAAAGGTGTACGCCTTTTTGTATCAAT [XGTACX_site6064]	9.67
TATATTTGTTGACACACACACAAAAAAAAAAAAAAA [CACACA_site7211]	10.1
GTCTACTACACTAAATGTACAAGAAAAAAGAAAAAA [XGTACX_site4660]	9.48
AAGAGTAAAATATGGTTGCACTAAAAATATATATTT [GTGCAC_site9484]	9.55
CTTAATATATGTGGCACACATGTGGAGTCCTATTAA [CACACA_site4281]	9.75
AAAAAAATATTAATGTGTACATAATAATAACATATA [XGTACX_site8319]	9.78
TATAAAATTCTGACTTGTACATGTGAAAAATAATTA [XGTACX_site1396]	9.53
TATATATATATATAATGTACACATTTTTATAACTAT [XGTACX_site5714]	9.6
AAAGATGGAAAAAAAAATTTGTGTGTTGAAAGATAT [GTGCAC_negctrl_site19]	9.69
AAAATACAATTTCTAGCACACAAAATATTATTATAA [CACACA_site9056]	9.72
GCGTTGTTTTTAAAAAGTACATTTTTATATAAGTTA [XGTACX_site8780]	9.63
TTGGTGATATTTTTCTCACACATTTACCAGAGATGT [CACACA_site4684]	9.7
TTTGTTTTTTTGAGAGTGCAATATATATAAAAAGGG [GTGCAC_site9691]	9.31
CATAATAAGTATAACGTTAGTTACAAACAGCTTGTT [CACACA_negctrl_site937]	9.76
TATTATTCAAAATTTGTGCACAAAATTAAAGGAACA	9.82
AAAATAATGTATATAGTGCAAATGAAAACGAAAAAA [GTGCAC_site9455]	10.1
TTTTTAAATAAATGTTTTTATTATATACATATCAAT [TGCATGCA_negctrl_site423]	9.62
TATTTATATATTTATGCATGTTATAGGCAAAAATGT [TGCATGCA_site397]	9.51
TATATTGATGATGATAGTACGTATGAATACAAAAAA [XGTACX_site4]	9.76
GTAGATATTTATTGAGTGCATGTTATAAAGGGAAAA [GTGCAC_site9481]	9.69
TTTTTATTTTTTTACAGTACATAAAATAAATAAATA [XGTACX_site6596]	9.05
TTTTTTTTATGGAAACGTACATACATACATTAAAGA [XGTACX_site7401]	9.31
